Reference: US11219214B2, “Benzosultams and analogues and their use as fungicides” (Bayer CropScience Aktiengesellschaft, priority 2016, dated 2022)

Experiment: log P determination by HPLC on a reversed-phase column (C 18), EEC Directive 79/831 Annex V.A8, Methods A, B, C
Settings: HPLC reversed-phase C 18, Method A: 40° C., 0.1% aqueous formic acid and acetonitrile, linear gradient 10% to 95% acetonitrile
Method: In table 1a, the log P values were determined in accordance with EEC Directive 79/831 Annex V.A8 by HPLC (High Performance Liquid Chromatography) on a reversed-phase column (C 18), using the method described below:
Method A: temperature: 40° C.; mobile phases: 0.1% aqueous formic acid and acetonitrile; linear gradient from 10% acetonitrile to 95% acetonitrile;
Method B: temperature: 40° C.; mobile phases: 0.001 molar ammonium acetate solution in water and acetonitrile; linear gradient from 10% acetonitrile to 95% acetonitrile;
Method C: temperature: 55° C.; mobile phases: 0.1% aqueous formic acid and acetonitrile; linear gradient from 10% acetonitrile to 95% acetonitrile.
If more than one Log P value is available within the same method, all the values are given and separated by “;”.
Iambda-max-values were determined using UV-spectra from 200 nm to 400 nm and the peak values of the chromatographic signals.

Compound | chromatographic logP
O=S1(=O)Cc2ccccc2N1c1cnc2c(F)cccc2c1 [I.018, 3-(2,2-dioxido-2,1-benzothiazol-1(3H)-yl)-8-fluoroquinoline] | 2.46
CC1(C)c2ccccc2N(c2cnc3c(F)cccc3c2)S1(=O)=O [I.015, 3-(3,3-dimethyl-2,2-dioxido-2,1-benzothiazol-1(3H)-yl)-8-fluoroquinoline] | 3.05

Same assay, conditions: HPLC reversed-phase C 18, Method C: 55° C., 0.1% aqueous formic acid and acetonitrile, linear gradient 10% to 95% acetonitrile

Compound | chromatographic logP
O=C1CS(=O)(=O)N(c2cnc3ccccc3c2)c2ccccc21 [I.159, 1-(quinolin-3-yl)-1H-2,1-benzothiazin-4(3H)-one 2,2-dioxide] | 2.28
CC1(C)C(F)(F)c2ccccc2N(c2cnc3ccccc3c2)S1(=O)=O [I.163, 4,4-difluoro-3,3-dimethyl-1-(quinolin-3-yl)-3,4-dihydro-1H-2,1-benzothiazine 2,2-dioxide] | 3.25
CC1Cc2ccccc2N(c2cc3ccccc3[n+]([O-])c2)S1(=O)=O (stereo not shown) [I.162, 3-methyl-1-(1-oxidoquinolin-3-yl)-3,4-dihydro-1H-2,1-benzothiazine 2,2-dioxide] | 1.8
CC1(C)CS(=O)(=O)N(c2cnc3ccccc3c2)c2ccccc21 [I.166, 4,4-dimethyl-1-(quinolin-3-yl)-3,4-dihydro-1H-2,1-benzothiazine 2,2-dioxide] | 2.88
CC1(C)C(=O)c2ccccc2N(c2cnc3ccccc3c2)S1(=O)=O [I.156, 3,3-dimethyl-1-(quinolin-3-yl)-1H-2,1-benzothiazin-4(3H)-one 2,2-dioxide] | 2.93
CC1C(C)(C)c2ccccc2N(c2cnc3ccccc3c2)S1(=O)=O (stereo not shown) [I.173, 3,4,4-trimethyl-1-(quinolin-3-yl)-3,4-dihydro-1H-2,1-benzothiazine 2,2-dioxide] | 3.57
CC1(C)c2ccccc2N(c2cnc3ccccc3c2)S(=O)(=O)C1(C)C [I.172, 3,3,4,4-tetramethyl-1-(quinolin-3-yl)-3,4-dihydro-1H-2,1-benzothiazine 2,2-dioxide] | 3.85
CC1Cc2ccccc2N(c2cnc3ccccc3c2)S1(=O)=O (stereo not shown) [I.158, 3-methyl-1-(quinolin-3-yl)-3,4-dihydro-1H-2,1-benzothiazine 2,2-dioxide] | 2.58
